According to publication PMC8286256:
Read-outs that look alike come from different tables or passages of the source. No constants are given. Whether binding was seen depends on the method and setting. For part of these data: Binding seen in cells or lysates may run through a third protein. Some entries that bind do so weakly or less than the wild type.

Chains of the proteins cited; added tags and fusions are not shown.
UniProt Q04207: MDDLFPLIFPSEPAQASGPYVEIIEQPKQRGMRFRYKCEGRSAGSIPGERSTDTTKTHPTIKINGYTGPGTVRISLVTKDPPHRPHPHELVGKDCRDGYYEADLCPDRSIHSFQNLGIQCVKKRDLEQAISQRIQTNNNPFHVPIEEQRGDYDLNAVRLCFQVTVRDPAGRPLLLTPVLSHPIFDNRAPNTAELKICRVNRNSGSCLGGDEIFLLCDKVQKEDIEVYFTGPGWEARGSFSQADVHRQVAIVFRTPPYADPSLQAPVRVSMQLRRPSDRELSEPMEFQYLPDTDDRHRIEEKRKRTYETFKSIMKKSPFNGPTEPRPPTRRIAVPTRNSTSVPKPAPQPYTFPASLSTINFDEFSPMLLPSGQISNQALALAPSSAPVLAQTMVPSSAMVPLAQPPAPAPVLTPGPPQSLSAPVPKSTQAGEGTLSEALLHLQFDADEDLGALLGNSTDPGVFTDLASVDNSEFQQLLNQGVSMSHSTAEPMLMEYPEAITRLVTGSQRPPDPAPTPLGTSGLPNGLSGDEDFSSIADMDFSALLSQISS
UniProt Q04206: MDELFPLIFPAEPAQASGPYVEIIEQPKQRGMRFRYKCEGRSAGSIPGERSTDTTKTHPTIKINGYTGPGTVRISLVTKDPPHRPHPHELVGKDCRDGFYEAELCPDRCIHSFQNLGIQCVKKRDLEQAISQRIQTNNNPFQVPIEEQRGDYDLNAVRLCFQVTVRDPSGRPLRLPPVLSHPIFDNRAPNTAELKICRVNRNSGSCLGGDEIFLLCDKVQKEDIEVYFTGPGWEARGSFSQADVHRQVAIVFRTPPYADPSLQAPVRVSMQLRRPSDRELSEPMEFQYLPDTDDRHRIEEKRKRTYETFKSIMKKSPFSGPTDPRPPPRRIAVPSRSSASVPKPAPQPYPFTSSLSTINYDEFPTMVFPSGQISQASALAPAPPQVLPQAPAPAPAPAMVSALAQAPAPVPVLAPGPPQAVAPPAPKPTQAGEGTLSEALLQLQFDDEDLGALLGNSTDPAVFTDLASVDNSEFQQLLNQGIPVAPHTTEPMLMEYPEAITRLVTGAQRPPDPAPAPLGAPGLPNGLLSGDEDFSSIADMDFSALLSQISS
UniProt Q9Z1E3: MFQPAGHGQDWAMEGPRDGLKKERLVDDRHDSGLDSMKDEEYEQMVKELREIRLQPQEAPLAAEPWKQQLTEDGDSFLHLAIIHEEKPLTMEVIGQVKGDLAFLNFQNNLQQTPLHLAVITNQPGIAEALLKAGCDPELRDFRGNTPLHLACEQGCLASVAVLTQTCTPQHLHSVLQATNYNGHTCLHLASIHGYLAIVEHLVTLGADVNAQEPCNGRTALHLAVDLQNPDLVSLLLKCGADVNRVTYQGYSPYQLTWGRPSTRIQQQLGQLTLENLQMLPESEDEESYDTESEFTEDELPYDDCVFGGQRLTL

Columns and labels:
[1] = target: p65 (endogenous) (mouse (endogenous in BV2)) (UniProt Q04207); test: co-IP; supernatants of BV2 cell lysates (untransfected, or transfected with si-Ctrl or si-DJ-1 for 72 h); immunoprecipitated with polyclonal anti-p65 antibodies or normal rabbit IgG; immunoblot
EGFP-p65 = EGFP-p65 (UniProt Q04206); test: co-IP; lysate supernatants of HEK293 cells transiently co-transfected with FLAG-DJ-1 or FLAG-DJ-1(L166P) and EGFP or EGFP-p65; immunoprecipitated with polyclonal anti-GFP antibody; immunoblot
GST-DJ-1 = GST-DJ-1 (UniProt Q99497); test: pull-down; GST, GST-DJ-1 or GST-DJ-1(L166P) (20 μg) on glutathione-Sepharose 4B incubated with His-p65 (50 μg) in an ice bath for 4 h; washed with cold PBS five times; immunoblot; both purified
GST-DJ-1(L166P) = GST-DJ-1(L166P) (UniProt Q99497); test: as above
[2] = target: p65 (endogenous) (mouse (endogenous in BV2)) (UniProt Q04207); test: co-IP; supernatants of BV2 cell lysates (untransfected, or transfected with si-Ctrl or si-DJ-1 for 72 h); immunoprecipitated with polyclonal anti-p65 antibodies or normal rabbit IgG; immunoblot; remark: listed apart in the source

“NF-κB inhibitor α (IκBα) (from UniProt Q9Z1E3 1-314)” was tested, and the binding [1] was “binds”.

With FLAG-DJ-1 (from UniProt Q99497 1-189) the binding (EGFP-p65) was “binds”.

In the case of His-p65 (from UniProt Q04206 1-551), the binding (GST-DJ-1) is reported as “binds” and the binding (GST-DJ-1(L166P)) is reported as “no binding (tested: His-p65 50 μg, GST-DJ-1(L166P) 20 μg)”.

For “FLAG-DJ-1(L166P) (from UniProt Q99497 1-189)”, the binding (EGFP-p65) was “no binding”.

B1: endogenous DJ-1 (protein, UniProt Q99LX0 1-189)
chain: MASKRALVILAKGAEEMETVIPVDVMRRAGIKVTVAGLAGKDPVQCSRDVMICPDTSLEDAKTQGPYDVVVLPGGNLGAQNLSESPMVKEILKEQESRKGLIAAICAGPTALLAHEVGFGCKVTTHPLAKDKMMNGSHYSYSESRVEKDGLILTSRGPGTSFEFALAIVEALVGKDMANQVKAPLVLKD
For B1, the binding [2] was “binds”.
